Among all 360,000 compounds or so, about 17,000 (4.7%) were called active. Inconclusive means that the source gave no clear call. Such entries were picked first, then a sample of the others. Rule as the data show it: active = activity change below about -50%; inconclusive = mostly about -30% to -49%; inactive = weaker than that.
assay: qHTS for Inhibitors of Inflammasome Signaling: IL-1-beta AlphaLISA Primary Screen; conditions: THP-1 LPS/ATP IL-1B secretion, 16 h; at 57.5 µM, hits give low values
Summary of the method: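 Secreted IL-1B measured by AlphaLISA bead assay after 16 h compound exposure of THP-1 cells; compounds (final up to 57.5 uM) added 1 h before LPS (250 ng/mL) and ATP (1.25 mM) stimulation; lower signal means less secretion.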
% is scaled to controls: 0 for no effect and ±100 for the full control effect.

Structure (SMILES)	activity change
CC(=O)c1c(C)[nH]c(C(=O)Nc2cccc(S(=O)(=O)N(C)c3ccccc3)c2)c1C	inconclusive: -38.7%
O=C1[C@H]2[C@@H](c3ccccc3)N[C@]3(CCCN(Cc4ccc(Cl)cc4)C3=O)[C@H]2C(=O)N1Cc1ccccc1	inconclusive: -30.7%
CCC1Oc2ccccc2N(CC(=O)NCCN2C(C)CCCC2C)C1=O (centres undefined)	inconclusive: -37.5%
CN(CC(=O)NC1CCCCC1)S(=O)(=O)c1ccc(Br)s1	inactive: 2.52%
CCC(C)NC(=O)Nc1ccc2c(c1)N(C)C(=O)c1ccccc1S2 (centres undefined)	inactive: 6.43%
CCCn1c(C)cc(C(=O)COC(=O)c2c(C)nn(-c3ccccc3)c2C)c1C	inconclusive: -33.4%
Cc1cc(C[n+]2cc(Br)ccc2N)c2ncccc2c1	active: -62.4%
CCOC(=O)Cn1c(=O)oc2cc(S(=O)(=O)Nc3ccc(N(CC)CC)cc3C)ccc21	inactive: 24.1%
CCOC(=O)C1(Cc2ccc(Cl)cc2)CCN(C(=O)c2sc(C)nc2C)CC1	inconclusive: -37.6%
CCOC(=O)c1c(NC(=O)CCS(=O)(=O)c2ccccc2)sc2c1CCN(C(C)C)C2	active: -79.9%
COCc1cc(CN2CCN(CCc3ccccc3)C(CCO)C2)ccc1OC (centres undefined)	inactive: 2.41%
Cc1ccc(N2C(=O)N(CC(=O)NCc3ccc(Cl)cc3)C(=O)C2C)cc1 (centres undefined)	inactive: -9%
Cc1cccc(-n2c(O)c(C=Nc3ccc(O)cc3)c3ccccc3c2=O)n1	inconclusive: -43.5%
CN1C=CC(=C[N+](=O)[O-])N(C)C1=O	inactive: 0%
COc1cccc(OC)c1C(=O)Nc1ccc2c(c1)n(C)c(=O)n2C	inactive: 0%
COc1cccc(NC(=O)N(C)C[C@@H]2Oc3cc(Br)ccc3S(=O)(=O)N([C@@H](C)CO)C[C@H]2C)c1	inactive: 7.66%
O=C(CSc1nnc(-c2ccncc2)n1Cc1ccco1)N1c2ccccc2Sc2ccc(Cl)cc21	active: -73.9%
Cc1cc(C)c2cc(CN(Cc3ccco3)C(=O)NCc3ccccc3)c(=O)[nH]c2c1	active: -58.2%
CCOC(=O)C1(Cc2cccc(OC)c2)CCCN(Cc2cc(OC)c(O)c(OC)c2)C1 (centres undefined)	inconclusive: -34.4%
COc1ccc(C[C@@H]2CN3C(=NC[C@@H]3Cc3ccc(O)cc3)N2C[C@H](C)NC(=O)CCC2CCCCC2)cc1	inconclusive: -33.6%
COCCCNC(=O)CCc1c(C)nc2c(-c3ccc(F)cc3)c(C)nn2c1C	inconclusive: -31.3%

Structure (SMILES)	activity change
CCOC(=O)N/N=C(\C)c1ccc(OC(F)F)cc1OC(F)F	inconclusive: -30.9%
COc1ccc(Nc2ncnc3sc(-c4ccccc4)cc23)cc1OC	inconclusive: -39.3%
CC1CCN(Cc2c(C#N)c3ccccc3n2C)CC1	inconclusive: -35%
COc1ccc(CC(N)c2csc(NC(=O)NCCc3ccccc3)n2)cc1 (centres undefined)	inconclusive: -40.5%
CCOC(=O)C(=Cc1ccc(-n2ccnc2)cc1)C(=O)OCC	active: -93.2%
O=C(O)Cc1sc(N/N=C\c2ccncc2)nc1-c1ccccc1	inconclusive: -33.1%
CCOc1cc(/C=N/NC(=O)c2ccc(NC(=O)C3CC3)cc2)ccc1O	inconclusive: -30.8%
CN(C)c1nc(NCc2ccccc2)nc(SCC(=O)Nc2ccccc2)n1	active: -77.1%
CC[C@]12C(=O)N(C)C[C@H]([C@@H]3C(=O)N(Cc4ccccc4)C(=O)[C@@H]31)N2C(=O)c1ccccc1	inactive: 18.8%
N#C/C(=C\c1cccnc1)C(=O)Nc1cccc2ccccc12	inconclusive: -30%
Cc1nc(Cl)c(C(=O)NCCc2ccccc2)c(C)c1[N+](=O)[O-]	inactive: 3.44%
O=Cc1ccc(OCC(=O)NC(=O)NC2CCCCC2)cc1	inactive: 6.05%
COc1cc2c(cc1OC)C(c1ccc(Cl)cc1)=NCC2	inconclusive: -31%
O=C1/C(=C/c2ccccc2)Oc2cc(OC(=O)N3CCOCC3)ccc21	active: -68.2%
Cc1nnc(-c2cccc(Br)c2)c2cn(-c3ccccc3Cl)nc12	inconclusive: -49.9%
COc1ccc(N2CCN(C3CCCN(C(=O)C4=C(C)OCCO4)C3)CC2)cc1 (centres undefined)	inactive: 14.2%
CC(C)(C)N=Cc1cc(-c2ccccc2)sc1O	inconclusive: -32.4%
CCOc1cccc2sc(NC(=O)CCS(=O)(=O)c3ccccc3)nc12	inactive
Cc1c(C(=O)Nc2ccccc2)c2ccc(C(F)(F)F)cc2n1O	inconclusive: -46.7%
CCN(CC)C(=O)C1CCCN(c2ncnc3c2cnn3-c2ccc(Cl)cc2)C1 (centres undefined)	active: -53.9%
Cc1ccc(/C=C2/SC(=S)N(CC(=O)Nc3ncc(Cc4ccc(C)cc4)s3)C2=O)cc1	inactive: -2.14%

Structure (SMILES)	activity change
Cc1ccc(NC(=O)CN(C)S(=O)(=O)c2cccc3nsnc23)cc1C	inactive: -13.5%
ClC(Cl)(c1nnnn1-c1ccccc1)c1nnnn1-c1ccccc1	active: -120%
Cc1cc(O)c(C(C)C)cc1NC(=O)Nc1ccc([N+](=O)[O-])cc1	inconclusive: -32.6%
Cc1ccc(NC(=O)[C@H](Cc2c[nH]c3ccccc23)NC(=O)[C@@H]2Cc3ccccc3CN2)c(C)c1	inactive: -4.33%
O=C(Nc1ccccc1N1CCCC1)C1CCN(C(=O)c2ccc(Cl)cc2)CC1	inconclusive: -41.3%
CCc1noc(C)c1C(=O)Nc1cccc(S(=O)(=O)N(C)c2ccccc2)c1	inactive: 1.15%
COc1ccc(OC)c(-c2csc(NC(=O)Cc3ccc(F)cc3)n2)c1	active: -69%
CC1(C)CC(=O)C(N=Nc2cc3c(cc2[N+](=O)[O-])OCCO3)=C(O)C1	inactive: 46.6%
CCCCS(=O)(=O)N1CCC(C(=O)Oc2ccc(Cl)cc2)CC1	inactive: 5.17%
O=C(Nc1sc2c(c1C(=O)NCCCO)CCCC2)c1ccccc1	active: -69%
CCOC(=O)c1c(CSc2cccs2)n(C)c2cc(Br)c(O)c(CN(C)C)c12	active: -54.3%
Nc1ccccc1N=c1ssnc1Cl	inactive: 20.6%
Nc1nnc(SCc2ccccc2F)s1	inconclusive: -39.9%
COc1c(Cl)cc(Cl)cc1CNc1ccc(S(N)(=O)=O)cc1	inconclusive: -33.7%
CCCc1cc(-c2nc(N)ncc2-c2ccc3c(c2)OCCCO3)c(O)cc1OC	inconclusive: -48.7%
COc1ccc(S(=O)(=O)N2CCCN(S(=O)(=O)c3ccc(OC)c(C)c3)CC2)cc1C	inconclusive: -46.2%
CCOC(=O)C1=C(C2=CCCCC2)c2ccc(OC)cc2N(S(=O)(=O)C(F)(F)F)C1C(=O)OCC (centres undefined)	inconclusive: -32.2%
COc1ccc(CC(N)c2csc(NC(=O)Nc3ccccc3C(C)C)n2)cc1 (centres undefined)	inconclusive: -46.3%
CC(C(=O)N1CCN(c2ccc(Cl)cc2)CC1)c1ncc(C(F)(F)F)cc1Cl (centres undefined)	inconclusive: -40.5%
Cc1ccc(/C=C/c2nnc(-c3cccs3)o2)cc1	inconclusive: -36.8%
CCN(CC)C(=O)c1ccc(S(=O)(=O)N2CCC(c3nc4ccccc4s3)CC2)cc1	inconclusive: -46.7%

Structure (SMILES)	activity change
CCCCN(C(=O)CSc1nnc(-c2ccc(OC)cc2)n1C(C)C)c1c(N)n(Cc2ccccc2)c(=O)[nH]c1=O	inconclusive: -41.4%
O=C(CN1C(=O)S/C(=C\c2ccccc2F)C1=O)NCCCn1ccnc1	inconclusive: -42%
CC1(c2ccccc2)NC(=O)N(CC(=O)Nc2ccc3c(c2)CCC3)C1=O (centres undefined)	inactive: -18.9%
CCOC(=O)COc1ccc2ccccc2c1/C=C/[N+](=O)[O-]	active: -92.1%
Cc1ccnc(NC(=O)Cc2ccc(-c3ccccc3)cc2)c1	inconclusive: -31%
CCOC(=O)CNC(=O)c1sc2nc(C)cc(C)c2c1N	inconclusive: -42.7%
CCC(C)NC(=O)Cn1c(=O)n(CCCC(=O)NCc2ccccc2Cl)c(=O)c2ccccc21 (centres undefined)	inconclusive: -40%
NC(=O)C1(NC(=O)[C@@H]2CC3(CC(c4cccc(NC(=O)c5cc([N+](=O)[O-])cc([N+](=O)[O-])c5)c4)=NO3)CN2C(=O)c2ccccc2)CC1 (some centres undefined)	inconclusive: -30.3%
C/C(=N\NC(=O)CNc1ccccc1)c1ccccc1	inactive: -6.98%
COc1ccc(CN2C(=NC(=O)c3ccccc3)SC3CS(=O)(=O)CC32)cc1OC (centres undefined)	active: -56.7%
O=C(c1cccc(C(F)(F)F)c1)C1CCCN(Cc2cccn2-c2ccccn2)C1 (centres undefined)	active: -91.4%
C=CCn1cc(C(=O)c2cc(Br)ccc2O)cc(C#N)c1=O	inactive: -9.33%
COc1nnc(-c2ccc(C)cc2)c2ccccc12	inactive: 5.85%
COc1ccc(NC(=O)c2cc3sccc3n2Cc2ccc(F)cc2)cc1OC	inconclusive: -42.6%
Cc1nc(NCc2ccc3c(c2)OCO3)c2oc3ccccc3c2n1	active: -51.9%
CC(=O)O[C@]1(C(C)=O)CC[C@H]2[C@@H]3C[C@H](C)C4=CC(=O)CC[C@]4(C)[C@H]3CC[C@@]21C	inconclusive: -33.2%
C=CCN1C(=O)NC(c2ccccc2)(C(F)(F)F)S/C1=C(\C#N)c1nnc(N2CCOCC2)n1-c1ccccc1 (centres undefined)	inconclusive: -46.1%
O=C(Nc1cccc(NC(=O)c2ccco2)c1)c1cccc(Br)c1	active: -60.8%
O=C(Nc1ccn(CCCNCc2ccccc2)c(=O)n1)OCc1ccccc1	inactive: 4.66%
CC(=O)OCc1c(C(F)(F)F)nn(C)c1Oc1cccc(C(F)(F)F)c1	inconclusive: -35%
CC(C(=O)N1CCc2ccccc21)N1CCN(S(=O)(=O)c2ccc(C(F)(F)F)cc2)CC1 (centres undefined)	inactive: -7.68%
